# Experimental data: the antibiotic and cytotoxicity screens of Wong et al. (2023)
# This is one part of the list.
# Tested on: S. aureus RN4220
# Assay: growth inhibition call (relative growth <= 0.2)
# Details: 50 µM
row,Structure (SMILES),growth inhibition call
1,C[C@@H]1CN([C@@H](C)CO)C(=O)c2cc(/C=C/c3ccccc3)cnc2O[C@@H]1CN(C)C(=O)C1CCOCC1,inactive
2,C[C@@H]1CN([C@@H](C)CO)C(=O)c2cc(NS(=O)(=O)c3ccc(Cl)cc3)ccc2O[C@@H](C)CCCCO[C@@H]1CN(C)C(=O)Nc1cccc2ccccc12,inactive
3,C[C@H]1CCCCO[C@H](CN(C)Cc2ccc(C(=O)O)cc2)[C@@H](C)CN([C@@H](C)CO)C(=O)c2cc(NC(=O)Nc3ccc(C(F)(F)F)cc3)ccc2O1,inactive
4,Cc1noc(C)c1S(=O)(=O)Nc1ccc2c(c1)C(=O)N([C@@H](C)CO)C[C@H](C)[C@H](CN(C)Cc1ccc(C(F)(F)F)cc1)OCCCC[C@@H](C)O2,inactive
5,NC(Cc1c[nH]c2ccccc12)C(=O)O (stereo not given),inactive
6,C[C@@H]1CCCCO[C@H](CN(C)C(=O)c2ccncc2)[C@@H](C)CN([C@H](C)CO)C(=O)c2cc(NC(=O)C3CCCCC3)ccc2O1,inactive
7,Cc1ccccc1NCC(=O)NN,inactive
8,N=C(N)SC=CC(=O)O,inactive
9,CC(=O)O.Cc1c(-c2ccc(O)cc2)n(Cc2ccc(OCCN3CCCCCC3)cc2)c2ccc(O)cc12,inactive
10,C[C@@H]1CN([C@H](C)CO)C(=O)Cc2cc(NC(=O)Nc3cccc4ccccc34)ccc2O[C@@H]1CN(C)Cc1ccc(C(F)(F)F)cc1,inactive
11,C[C@@H]1CN([C@H](C)CO)C(=O)c2cc(NC(=O)CCN3CCOCC3)ccc2O[C@@H]1CN(C)S(=O)(=O)c1cn(C)cn1,inactive
12,Cc1noc(C)c1NC(=O)N(C)C[C@H]1Oc2ccc(NS(C)(=O)=O)cc2C(=O)N([C@H](C)CO)C[C@@H]1C,inactive
13,CC(C)NC(=O)Nc1ccc2c(c1)C(=O)N([C@H](C)CO)C[C@H](C)[C@H](CN(C)Cc1ccc(Cl)c(Cl)c1)OCCCC[C@@H](C)O2,inactive
14,COc1cccc(C#Cc2ccc3c(c2)O[C@H](CN(C)C(=O)CN2CCOCC2)[C@H](C)CN([C@@H](C)CO)S3(=O)=O)c1,inactive
15,CN1C(=O)c2cc(NC(=O)Cc3cccs3)ccc2OC[C@H]2O[C@@H](CC(=O)NCCc3ccncc3)CC[C@@H]21,inactive
16,C[C@@H]1CCCCO[C@@H](CN(C)S(=O)(=O)c2cccs2)[C@@H](C)CN([C@H](C)CO)C(=O)c2cc(NC(=O)Nc3ccc(F)cc3)ccc2O1,inactive
17,COCCC(=O)N1CCN(c2ccccn2)CC1,inactive
18,Cc1noc(C)c1S(=O)(=O)Nc1ccc2c(c1)C(=O)N([C@H](C)CO)C[C@@H](C)[C@@H](CN(C)C)OCCCC[C@H](C)O2,inactive
19,COc1ccc(CN(C)C[C@@H]2Oc3ccc(NC(=O)CCN4CCOCC4)cc3CC(=O)N([C@@H](C)CO)C[C@@H]2C)cc1,inactive
20,C[C@@H]1CCCCO[C@@H](CN(C)C(=O)Nc2ccccc2)[C@@H](C)CN([C@H](C)CO)C(=O)c2cc(NS(=O)(=O)c3ccccc3)ccc2O1,inactive

row,Structure (SMILES),growth inhibition call
1,C[C@@H]1CN([C@H](C)CO)C(=O)c2cc(NC(=O)c3ccncc3)ccc2O[C@@H](C)CCCCO[C@H]1CN(C)Cc1ccccc1,inactive
2,O=C(O)C(S)C(S)C(=O)O (stereo not given),inactive
3,C[C@@H]1CN([C@H](C)CO)C(=O)c2c(c3ccccc3n2C)-c2ccccc2CO[C@H]1CN(C)Cc1cccc(C(F)(F)F)c1,inactive
4,C[C@H](CO)N1C[C@H](C)[C@H](CN(C)C(=O)Nc2ccc(F)cc2)OCCCC[C@H](C)Oc2ccc(NC(=O)Nc3cccc4ccccc34)cc2C1=O,inactive
5,CN1C(=O)c2cc(NS(=O)(=O)c3ccc(F)cc3)ccc2OC[C@@H]2O[C@@H](CC(=O)NCC(F)(F)F)CC[C@@H]21,inactive
6,Cc1ccc(NC(=O)c2ccc(CN3CCN(C)CC3)cc2)cc1Nc1nccc(-c2cccnc2)n1,inactive
7,Cc1ccc(S(=O)(=O)Nc2ccc3c(c2)C(=O)N([C@H](C)CO)C[C@@H](C)[C@H](CN(C)C(=O)Nc2ccc(C(F)(F)F)cc2)OCCCC[C@H](C)O3)cc1,inactive
8,COc1ccc(CN(C)C[C@H]2Oc3c(NC(=O)c4cc(C)nn4C)cccc3C(=O)N([C@H](C)CO)C[C@@H]2C)cc1,inactive
9,Cn1c(=O)c2c(ncn2C)n(C)c1=O,inactive
10,Cc1noc(C)c1NC(=O)N(C)C[C@@H]1OCCCC[C@H](C)Oc2ccc(NC(=O)Cc3ccccc3)cc2C(=O)N([C@H](C)CO)C[C@@H]1C,inactive
11,O=C(C[C@H]1CC[C@@H]2[C@H](COC[C@@H](O)CN2S(=O)(=O)c2ccccc2)O1)NCc1ccc(-c2ccccc2)cc1,inactive
12,Cc1ccc(S(=O)(=O)Nc2ccc3c(c2)C(=O)N([C@@H](C)CO)C[C@H](C)[C@@H](CN(C)S(=O)(=O)c2ccc(F)cc2)O3)cc1,inactive
13,N#CCC12CC3CC(CC(C3)C1)C2,inactive
14,C[C@@H]1CCCCO[C@@H](CN(C)Cc2ccc(C(=O)O)cc2)[C@H](C)CN([C@@H](C)CO)C(=O)c2cc(NC(=O)c3ccccc3)ccc2O1,inactive
15,CCc1nc2ccc(C(=O)Nc3cccc(OC)c3)cn2c1N(CC)Cc1cccc(Br)c1,inactive
16,Clc1ccc2ncccc2c1,inactive
17,CO/N=C(\C(=O)N[C@@H]1C(=O)N2C(C(=O)O)=C(CSC(=O)c3ccco3)CS[C@H]12)c1csc(N)n1,active
18,C[C@@H]1CN([C@H](C)CO)C(=O)c2cc(NS(=O)(=O)c3ccc(Cl)cc3)ccc2O[C@@H](C)CCCCO[C@@H]1CN(C)C(=O)Cc1ccccc1,inactive
19,C[C@@H]1CN([C@H](C)CO)C(=O)c2cc(-c3cncnc3)cnc2O[C@H]1CN(C)C(=O)CN1CCOCC1,inactive
20,O=C1O[C@@H](c2ccccc2)[C@@H](c2ccccc2)N2[C@@H](c3ccc(OCCO)cc3)[C@]3(C(=O)Nc4ccccc43)[C@@H](C(=O)N3CCCCCCC3)[C@H]12,inactive
